Experimental data as given in PubChem BioAssay AID504339 (National Center for Advancing Translational Sciences (NCATS), 2011).
The whole screen tested about 390,000 compounds, of which about 17,000 (4.4%) were called active. The inconclusive results got no clear call from the source; some entries with a clear call stand among them for comparison. The call rests on the fitted dose curve; in most records, active means well fitted inhibition curve with a large enough effect; inconclusive means small, poorly fitted or top-dose-only effect; inactive means no such curve, though single readings can be large or run the other way. Where the call is inconclusive, the potency comes from a doubtful curve fit.

target: Lysine-specific demethylase 4A (Homo sapiens) (UniProt O75164); assay: qHTS Assay for Inhibitors of JMJD2A-Tudor Domain; conditions: AlphaScreen JMJD2A-Tudor / H3K4me3 peptide binding; activity change, negative = inhibition: at 114 µM (top of the series); further: nearly all actives have a fitted effect of over 50% in size
Sequence of UniProt O75164 (O75164 whole entry, looked up, the tested form may be a part): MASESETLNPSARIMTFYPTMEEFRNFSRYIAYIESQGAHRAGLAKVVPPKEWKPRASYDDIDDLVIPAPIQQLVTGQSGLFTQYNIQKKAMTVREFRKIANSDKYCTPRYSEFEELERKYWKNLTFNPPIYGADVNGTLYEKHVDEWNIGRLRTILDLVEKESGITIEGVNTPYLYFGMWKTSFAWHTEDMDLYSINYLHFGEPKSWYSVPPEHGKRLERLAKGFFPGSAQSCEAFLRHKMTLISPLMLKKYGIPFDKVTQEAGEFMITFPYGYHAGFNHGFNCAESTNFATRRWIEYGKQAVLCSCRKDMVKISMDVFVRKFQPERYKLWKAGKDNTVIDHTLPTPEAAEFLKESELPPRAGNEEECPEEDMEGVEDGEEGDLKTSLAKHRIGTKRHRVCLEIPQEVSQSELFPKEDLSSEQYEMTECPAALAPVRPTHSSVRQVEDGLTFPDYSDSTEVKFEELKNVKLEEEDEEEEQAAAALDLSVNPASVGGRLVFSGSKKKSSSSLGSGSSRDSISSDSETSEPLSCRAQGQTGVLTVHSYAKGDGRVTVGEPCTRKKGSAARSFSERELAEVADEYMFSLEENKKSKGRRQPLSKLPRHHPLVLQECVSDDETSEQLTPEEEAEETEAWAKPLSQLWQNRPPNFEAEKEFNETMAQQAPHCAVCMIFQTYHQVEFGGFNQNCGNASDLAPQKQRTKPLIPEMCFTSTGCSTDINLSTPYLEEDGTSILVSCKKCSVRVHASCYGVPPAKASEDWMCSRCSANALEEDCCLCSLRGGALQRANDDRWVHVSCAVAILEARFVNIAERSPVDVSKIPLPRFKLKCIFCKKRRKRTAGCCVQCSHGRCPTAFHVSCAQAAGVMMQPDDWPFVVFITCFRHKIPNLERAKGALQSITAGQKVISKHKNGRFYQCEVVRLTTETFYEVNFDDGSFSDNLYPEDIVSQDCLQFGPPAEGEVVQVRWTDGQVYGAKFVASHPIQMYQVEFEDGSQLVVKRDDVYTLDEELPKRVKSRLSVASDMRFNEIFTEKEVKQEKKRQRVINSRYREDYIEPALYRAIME
On the % scale 0 is the no-effect control and ±100 the full control effect; potency means the concentration at half of the fitted maximal effect; tags describe the fitted curve by direction and shape.

SMILES | Potency | activity change, negative = inhibition
COc1ccc(Cl)cc1C=CC=Nc1ccccc1O | inconclusive: 100 µM [inhibitor, single point] | 
O=C(CSc1nc(-c2ccccc2)cn1-c1ccccc1F)Nc1ccc(F)cc1 | inconclusive: 39.8 µM [inhibitor, partial curve] | 
CCOC(=O)CSc1nnc(NC(=O)c2cc([N+](=O)[O-])cc([N+](=O)[O-])c2)s1 | inconclusive: 70.8 µM [inhibitor, single point] | 
COc1ccc(NC(=O)CSc2nc(-c3cc(OC)c(OC)c(OC)c3)[nH]c2-c2ccc(F)cc2)cc1 | inconclusive: 22.4 µM [inhibitor, full curve] | 
COCCSc1ccccc1C(=O)NCCCn1ccnc1 | inconclusive: 89.1 µM [inhibitor, partial curve] | 
CCC(=O)Oc1ccc(C2NC(=O)c3ccccc3O2)cc1OC (configuration not stated) | inconclusive: 79.4 µM [inhibitor, single point] | 
Cc1ccc(C)c(Cn2c(O)c(N=NC(=S)Nc3ccccc3F)c3ccccc32)c1 | inconclusive: 7.94 µM [inhibitor, full curve] | 
COc1ccc(OC)c(NC(=O)c2cccc3c2C(=O)N(C2CCCCC2)C3)c1 | inconclusive: 25.1 µM [inhibitor, full curve] | 
CCCCC1=CC2=CC(=O)C(C)(OC(=O)CC)C(=O)C2=CN1Cc1ccc2c(c1)OCO2 (configuration not stated) | inconclusive: 79.4 µM [inhibitor, partial curve] | 
Cc1[nH]c(C)c(S(=O)(=O)Nc2cccc(Cl)c2C)c1C(=O)N1CCCCC1 | inconclusive: 15.8 µM [inhibitor, full curve, poor fit] | 
CC1CN(C2CCN(S(=O)(=O)c3ccc4ccccc4c3)CC2)CC(C)O1 (configuration not stated) | inconclusive: 0.708 µM [inhibitor, full curve, poor fit] | 
Cc1cccc(N(C(=O)CNC(=O)c2ccco2)C(C(=O)NC2CCCC2)c2ccncc2)c1 (configuration not stated) |  | inactive: -5.48%
O=C(NCCc1ccccc1)c1ccc2c(c1)S(=O)(=O)c1ccccc1C2=O | inconclusive: 70.8 µM [inhibitor, partial curve] | 
CCOc1ccc2nc(N3CCN(C(=O)c4ccco4)CC3)sc2c1 |  | inactive: -6.82%
Nn1c(Cc2ccccc2)n[nH]c1=S | active: 10 µM | 
CC(C)Cn1c(-c2nn(C)cc2Cl)n[nH]c1=S | active: 8.91 µM | 
CCn1cc(/C=C(\NC(=O)c2ccc(C)cc2)C(=O)NCCCn2ccnc2)c2ccccc21 | inconclusive: 44.7 µM [inhibitor, full curve] | 
COC(=O)c1sccc1NC(=O)c1cccc(OC)c1 | inconclusive: 28.2 µM [inhibitor, single point] | 
COc1ccccc1-c1cccc([C@@H]2C[C@H]3[C@H](CON3C)CN2S(=O)(=O)c2ccccc2C)c1 | inconclusive: 50.1 µM [inhibitor, partial curve] | 
N#Cc1nc(-c2ccco2)oc1N1CCN(C(c2ccccc2)c2ccccc2)CC1 |  | inactive: -35.5%
CSc1nsc(SCC(=O)Nc2ccccc2C(=O)O)n1 | inconclusive: 22.4 µM [inhibitor, single point] | 
Cc1ccc([N+](=O)[O-])cc1S(=O)(=O)N(C(=O)c1ccncc1)c1ccc2oc3c(c2c1)CCCC3 | inconclusive: 3.16 µM [inhibitor, full curve] | 
CCN(CC)C(=O)C1CCCN(Cc2ccc(OC)c(C)c2C)C1 (configuration not stated) | active: 1.58 µM | 

SMILES | Potency | activity change, negative = inhibition
O=C(c1ccco1)N1CCCN(C(=O)c2ccco2)CC1 | inconclusive: 39.8 µM [inhibitor, single point] | 
CCOc1cccc(C2C(C(=O)c3ccco3)=C(O)C(=O)N2c2nnc(C)s2)c1 (configuration not stated) | inconclusive: 89.1 µM [inhibitor, single point] | 
O=C(Nc1ccccc1F)c1ccc(Cn2nc(N3CCN(c4ccccc4)CC3)ccc2=O)o1 | active: 50.1 µM | 
Cc1cc2cc(CNC(=O)c3ccc(Br)o3)ccc2[nH]1 | inconclusive: 35.5 µM [inhibitor, full curve] | 
Cc1cc(Cl)c2c(c1)[C@]1(C(=O)N2)[C@@H]2C(=O)N(Cc3ccccc3)C(=O)[C@@H]2[C@@H]2CCCN21 |  | inactive: -31.3% [at 57.1 µM]
COc1cc(OC)c(NC(=O)N2CCc3c([nH]c4ccccc34)C2c2ccccc2F)cc1Cl (configuration not stated) | inconclusive: 44.7 µM [inhibitor, partial curve] | 
COc1ccc(OC)c(NC(=O)Nc2ccccc2C)c1 |  | inactive: -20.1%
O=C(CCC(=O)N1CC2CCCN2c2ccccc21)NCc1ccc(F)cc1 (configuration not stated) | inconclusive: 56.2 µM [inhibitor, partial curve, poor fit] | 
O=[N+]([O-])c1cccc(-c2cn3nc(-c4ccccc4)c(-c4ccccc4)nc3n2)c1 |  | inactive: 2.56%
Cc1ccc(C)c(S(=O)(=O)NCCOc2nc(NC(C)C)nc(NC(C)C)n2)c1 |  | inactive: -18.6%
COc1ccc(-c2nc(CSCC(=O)N3CCc4ccccc4C3)c(C)o2)cc1OC | inconclusive: 56.2 µM [inhibitor, partial curve] | 
CC(=O)Nc1ccc(S(=O)(=O)NNc2cccc(C)c2)cc1 | inconclusive: 5.01 µM [inhibitor, full curve, poor fit] | 
O=C(Nc1cc2c(cc1C(=O)c1ccccc1Br)OCCO2)c1ccccc1 | inconclusive: 25.1 µM [inhibitor, partial curve] | 
Cc1onc(-c2ccccc2Cl)c1C(=O)NCC(=O)O |  | inactive: -8.4% [at 57.1 µM]
C/C(=N\NC(=O)Cc1c[nH]c2ccccc12)c1ccc2ccccc2c1 | inconclusive: 31.6 µM [inhibitor, partial curve] | 
CCOc1ccc(-c2cnc(NCc3cccc4ccccc34)n2CCOC)cc1 | active: 14.1 µM | 
Cc1ccc(OCC(=O)Nc2ccccc2C(=O)OCc2cc(=O)n3ccsc3n2)cc1 | inconclusive: 89.1 µM [inhibitor, partial curve, poor fit] | 
COc1ccc(C(=O)NCc2ccc(N3CCN(C(=O)OC(C)(C)C)CC3)cc2)cc1 | inconclusive: 79.4 µM [inhibitor, single point] | 
Cc1ccc(NC(=O)CN(C)Cc2ccc(F)cc2)c([N+](=O)[O-])c1 | inconclusive: 25.1 µM [inhibitor, full curve] | 
C=CCN(CC=C)C(=O)C[n+]1ccc(C(N)=O)cc1 |  | inactive: -9.97%
CC(=O)Nc1ccc(S(=O)(=O)N(C)CC(=O)Nc2nc3ccccc3[nH]2)cc1 | inconclusive: 4.47 µM [inhibitor, full curve, poor fit] | 
Cc1ccc(NC(=O)CSc2ncc(-c3ccccc3)[nH]2)cc1 | inconclusive: 44.7 µM [inhibitor, partial curve] | 
COc1ccc(S(=O)(=O)c2c(Nc3ccccc3F)sc(C(=O)c3cccc(OC)c3)c2N)cc1 | inconclusive: 50.1 µM [inhibitor, partial curve] | 

SMILES | Potency | activity change, negative = inhibition
CCOC(=O)c1sc(NC(=O)CSc2nc3c(cc2C#N)CCCCCC3)c(C#N)c1C | inconclusive: 100 µM [inhibitor, single point] | 
OCCOCCn1c(C(CO)Nc2nc(-c3ccc(Cl)cc3)cs2)nc2ccccc21 (configuration not stated) | inconclusive: 56.2 µM [inhibitor, partial curve] | 
COc1ccc(/[N+]([O-])=C/c2ccco2)cc1 | inconclusive: 25.1 µM [inhibitor, full curve] | 
CC(=O)Nc1c(C(=O)O)oc2ccc(Cl)cc12 | inconclusive: 79.4 µM [inhibitor, single point] | 
CCC(CO)n1c(SCc2cc([N+](=O)[O-])cc3c2OCOC3)nc2ccccc2c1=O (configuration not stated) | inconclusive: 50.1 µM [inhibitor, partial curve] | 
O=C(Nc1cccc(Br)c1)N1CCN2CCCCC2C1 (configuration not stated) |  | inactive: 2.41%
CCOc1ccc(NC(=O)CN(C)C(=O)CSCc2c(C)noc2C)cc1OCC |  | inactive: -20.7%
COc1ccccc1CC(=O)Nc1ccc2nc(Nc3cccc(C(F)(F)F)c3)cc(C)c2c1 |  | inactive: -2.97%
CN(C)S(=O)(=O)c1ccc2oc(SCC(=O)NCC(F)(F)F)nc2c1 | inconclusive: 100 µM [inhibitor, single point] | 
Cc1ccc(-c2cc(C(=O)N3CCN(c4ccccc4O)CC3)c3ccccc3n2)cc1 | inconclusive: 44.7 µM [inhibitor, full curve, poor fit] | 
Cc1ccc(C2C3=C(CCCC3=O)Nc3nc(SCC(=O)NCc4ccco4)[nH]c(=O)c32)cc1 (configuration not stated) |  | inactive: -9.72%
COc1ccc(NC(=O)C2=NNC(=O)CC2)cc1S(=O)(=O)N1CCCCC1 | inconclusive: 25.1 µM [inhibitor, full curve, poor fit] | 
COc1ccc(Cl)cc1S(=O)(=O)Nc1ncn[nH]1 |  | inactive: -11.3%
CC1(C)Cc2ccccc2-c2n[nH]c(=S)n21 | active: 3.16 µM | 
CCCc1nc2ccccc2c(=O)n1NC(=O)c1c(O)c2ccccc2[nH]c1=O | inconclusive: 63.1 µM [inhibitor, partial curve, poor fit] | 
c1ccc(NCCCNc2ccccc2)cc1 | inconclusive: 79.4 µM [inhibitor, partial curve, poor fit] | 
O=S(=O)(NCC(c1ccc2c(c1)OCO2)N1CCN(c2ccccc2)CC1)c1ccccc1 (configuration not stated) | inconclusive: 56.2 µM [inhibitor, partial curve] | 
CCC1CCCCN1C(=S)Nc1ccc(S(=O)(=O)Nc2ncccn2)cc1 (configuration not stated) | active: 100 µM | 
CC1(C)CC(=O)C2=C(C1)NC(Nc1nc3ccccc3o1)=NC2c1cccnc1 (configuration not stated) |  | inactive: -12.8%
CCOC(=O)c1cc(-c2ccc(C)cc2)n(CCCC(=O)Nc2cc(C)ccc2C)c1 |  | inactive: -15.1%
Cc1nc(N2CCN(C(=O)c3ccco3)CC2)nc2c1C(=O)CC(C)C2 (configuration not stated) |  | inactive: -6.06%
